Results reported in PubChem BioAssay AID624296 (National Center for Advancing Translational Sciences (NCATS), 2012).
Hit rate of the full screen: of about 350,000 compounds, about 9,900 (2.8%) were called active. The inconclusive results got no clear call from the source; some entries with a clear call stand among them for comparison. Calls follow the shape of the dose curve; as a rule, active = well fitted activation curve with a large enough effect; inconclusive = small, poorly fitted or top-dose-only effect; inactive = no such curve, though single readings can be large or run the other way. No potency is given beside an inconclusive call; the fits are too rough.

experiment: A quantitative high throughput screen for small molecules that induce DNA re-replication in MCF 10a normal breast cells.; also: nearly all actives have a fitted effect of over 50% in size; as to activity, positive = re-replication: % of control where 0% means no effect; details: MCF 10A DNA re-replication, Hoechst nuclear intensity, 48 h; activity, positive = re-replication: at 46.1 µM (top of the series)
Potency is read from the fitted curve at half-maximal effect; tags tell the direction and shape of the fitted curve.

SMILES | Potency | activity, positive = re-replication
COc1ccc(CN2CCC(CO)(Cc3ccccc3)CC2)cc1Cn1cccn1 | inconclusive [activator, single point] | –
O=c1[nH]c2cc3c(cc2cc1CN(CC1CCCO1)S(=O)(=O)c1ccc(Cl)cc1)OCCO3 (stereo not given) | inconclusive [activator, single point] | –
CCOC(=O)c1c(NC(=O)c2ccccc2Cl)sc2c1CCc1ccccc1-2 | active: 16.4 µM | –
COc1ccc(C2c3c(-c4ccccc4O)n[nH]c3C(=O)N2Cc2ccco2)cc1OC (stereo not given) | – | inactive: 10.8%
COc1ccc(C(=O)N(CCc2ccccc2)Cc2ccccc2)c(OC)n1 | inconclusive [activator, single point] | –
Cc1ccnc(NS(=O)(=O)c2ccc(NC(=O)Cc3c(F)cccc3Cl)cc2)n1 | – | inactive: -0.897%
CCCCN(C(=O)c1cc(S(=O)(=O)N2CCCCCC2)ccc1OC)c1ccccc1 | inconclusive [activator, single point] | –
N=c1c(C(=O)NCC2CCCO2)cc2c(=O)n3ccccc3nc2n1C1CCCC1 (stereo not given) | active: 5.17 µM | –
CCn1c(/C=C/c2ccc([N+](=O)[O-])o2)nc2ccccc2c1=O | active: 20.6 µM | –
COc1cc(CNC2CCCC2)cc(Cl)c1OCc1ccc(F)cc1 | inconclusive [activator, single point] | –
COc1ccc(C(=O)N/N=C/c2cccnc2)cc1 | – | inactive: 6.37%
CN(C)/C=C/C(=O)c1ccc2noc(-c3ccc(F)cc3)c2c1 | inconclusive [activator, single point] | –
CCOC(=O)Nc1ccc(N2CCOCC2)c(S(=O)(=O)Nc2ccc(Cl)cc2)c1 | inconclusive [activator, single point] | –
Cc1cc(C)n(CC(=O)NNC(=O)COc2ccc(Cl)cc2Cl)n1 | – | inactive: -3.54%
Cc1ccc(C(C)C)c(OCCNC(=S)Nc2cccc3ccccc23)c1 | inconclusive [activator, partial curve, poor fit] | –
Cc1cc(C)n(CCc2nc(-c3ccc(C(C)(C)C)cc3)cs2)n1 | inconclusive [activator, single point] | –
CC12CCC(=O)N1C(C(=O)NCCc1ccc(S(N)(=O)=O)cc1)CS2 (stereo not given) | – | inactive: -1.47%
COC(=O)c1cc(NC(=O)c2ccccc2)c(=O)oc1C | – | inactive: -1.85%
Cc1ccccc1C(=O)N1CCN(CCNC(=O)C(=O)Nc2ccc(Br)cc2)CC1 | inconclusive [activator, partial curve, poor fit] | –
CC(=O)NC(Nc1c(C)n(C)n(-c2ccccc2)c1=O)C(Cl)(Cl)Cl (stereo not given) | – | inactive: -4.16%
